Reference: the supplement of paper PMC9446081
In all, about 39,000 compounds went through this assay and about 220 (0.56%) showed activity. The list shows a part of the results.

What follows are compounds tested on Escherichia coli K-12 BW25113 (assay: relative growth (OD600 normalised to plate interquartile mean) (fraction); higher = less growth inhibition, active = 0.2 or less). Details: 50 µM; LB; incubation time: overnight (16-24 h).
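Note: static incubation at 37 °C against the wild-type strain, values averaged over two biological replicates.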

| SMILES | relative growth |
| --- | --- |
| C[N+](C)(C)CCCCCCNC(=O)[C@@H]1C[C@@H]2C(=O)N[C@@H](Cc3ccccc3)C(=O)N2[C@@H]1c1cccc(OCCO)c1 | inactive: 0.975 |
| C[C@@H]1CCCCO[C@@H](CN(C)C(=O)Nc2ccccc2)[C@@H](C)CN([C@H](C)CO)C(=O)c2cc(NS(=O)(=O)c3ccc(Cl)cc3)ccc2O1 | inactive: 0.996 |
| CCS(=O)(=O)N1C[C@]2(C1)CN([C@H](CO)c1c2c2ccc(cc2n1C)OC)C(=O)Nc1c(noc1C)C | inactive: 0.981 |
| C[C@H](CO)N1C[C@H](C)[C@@H](CN(C)Cc2ccc(Oc3ccccc3)cc2)OCc2ccccc2-c2c(n(C)c3ccccc23)C1=O | inactive: 1.01 |
| C[C@@H]1CCCCO[C@H](CN(C)S(=O)(=O)c2cccs2)[C@@H](C)CN([C@H](C)CO)C(=O)c2cc(NS(=O)(=O)c3cn(C)cn3)ccc2O1 | inactive: 0.974 |
| COc1ccccc1C#Cc1ccc2c(c1)O[C@H](CN(C)Cc1cccnc1)[C@H](C)CN([C@H](C)CO)S2(=O)=O | inactive: 1.05 |
| COc1ccc(S(=O)(=O)Nc2ccc3c(c2)C(=O)N([C@H](C)CO)C[C@H](C)[C@H](CN(C)Cc2ccc(-c4ccccc4)cc2)O3)cc1 | inactive: 0.918 |
| Cc1cc(C(=O)Nc2cccc3c2O[C@@H](CN(C)C(=O)Nc2ccccc2)[C@@H](C)CN([C@@H](C)CO)C3=O)n(C)n1 | inactive: 0.932 |
| C[C@@H]1CN([C@H](C)CN(C)C)C(=O)c2cc(NC(=O)Cc3cn(C)c4ccccc34)ccc2O[C@H]1CN(C)S(=O)(=O)c1ccc(Cl)cc1 | inactive: 0.976 |
| C[C@@H]1CCCCO[C@H](CN(C)Cc2ccc(C(F)(F)F)cc2)[C@H](C)CN([C@@H](C)CO)C(=O)c2cc(NC(=O)c3ccncc3)ccc2O1 | inactive: 0.984 |
| Cc1cccc(C)c1OCC(C)N.Cl (stereo unspecified) | inactive: 0.896 |
| O=C(O)CSc1ncnc2nc[nH]c12 | inactive: 1.01 |
| Cc1noc(C)c1NC(=O)Nc1ccc2c(c1)CC(=O)N([C@H](C)CO)C[C@@H](C)[C@@H](CN(C)Cc1ccc(C(F)(F)F)cc1)O2 | inactive: 1 |
| Cc1noc(C)c1NC(=O)Nc1cccc2c1O[C@@H](CN(C)C(=O)NC(C)C)[C@H](C)CN([C@@H](C)CO)C2=O | inactive: 0.981 |
| Cc1noc(C)c1S(=O)(=O)Nc1ccc2c(c1)C(=O)N([C@@H](C)CO)C[C@H](C)[C@H](CN(C)S(C)(=O)=O)O2 | inactive: 0.999 |
| COc1ccc(NC(=O)N(C)C[C@H]2Oc3ccc(NS(=O)(=O)c4c(C)noc4C)cc3CC(=O)N([C@H](C)CO)C[C@@H]2C)cc1 | inactive: 1.03 |
| C[C@@H]1CN([C@@H](C)CO)S(=O)(=O)c2ccc(C3=CCCC3)cc2O[C@@H]1CN(C)S(=O)(=O)c1cn(C)cn1 | inactive: 0.999 |
| Cc1ccc(C(=O)N(CCCN)[C@@H](c2oc3cc(Cl)ccc3c(=O)c2Cc2ccccc2)C(C)C)cc1 | inactive: 0.987 |
| COc1ccc(NC(=O)N(C)C[C@H]2OCc3ccccc3-c3c(n(C)c4ccccc34)C(=O)N([C@H](C)CO)C[C@@H]2C)cc1 | inactive: 1.01 |
| C[C@@H]1CCCCO[C@H](CN(C)CC2CCCCC2)[C@@H](C)CN([C@H](C)CO)C(=O)c2cc(NS(=O)(=O)c3ccc(Cl)cc3)ccc2O1 | inactive: 1.01 |
| C[C@H](CO)N1C[C@H](C)[C@@H](CN(C)S(=O)(=O)c2cn(C)cn2)Oc2c(NS(=O)(=O)c3ccc(Cl)cc3)cccc2C1=O | inactive: 1 |

| SMILES | relative growth |
| --- | --- |
| C[C@@H]1CCCCO[C@@H](CN(C)C(=O)c2ccccc2)[C@H](C)CN([C@H](C)CO)C(=O)c2cc(NC(=O)Nc3ccc(C(F)(F)F)cc3)ccc2O1 | inactive: 0.999 |
| O=S(=O)(N1CCOCC1)n1nnc2ccccc21 | inactive: 1.03 |
| C[C@H]1CN([C@@H](C)CO)S(=O)(=O)c2ccc(C#Cc3ccc(F)cc3)cc2O[C@H]1CN(C)S(=O)(=O)c1ccc(F)cc1 | inactive: 1.07 |
| COCC(=O)Nc1ccc2c(c1)C(=O)N(C)C[C@@H](OC)[C@@H](C)CN(C(=O)Cc1cccnc1)[C@H](C)CO2 | inactive: 1.03 |
| CCOC(=O)C1CCN(C(=O)CNC(=O)Cc2n[nH]c(=O)c3ccccc23)CC1 | inactive: 1.01 |
| COc1ccc(S(=O)(=O)Nc2ccc3c(c2)C(=O)N([C@H](C)CO)C[C@H](C)[C@H](CN(C)S(=O)(=O)c2ccc(Cl)cc2)OCCCC[C@H](C)O3)cc1 | inactive: 1.01 |
| C=CC[C@@H](CC(=O)N[C@@H](CO)Cc1ccccc1)C(=O)N[C@H](C)COC(=O)[C@@H](CC=C)CC(=O)OC(C)(C)C | inactive: 0.954 |
| Cc1noc(C)c1NC(=O)Nc1ccc2c(c1)C(=O)N([C@H](C)CO)C[C@H](C)[C@H](CN(C)C(=O)Nc1ccccc1)OCCCC[C@H](C)O2 | inactive: 1.01 |
| C[C@@H]1CN([C@@H](C)CO)C(=O)c2cc(NC(=O)Nc3ccc(C(F)(F)F)cc3)ccc2O[C@H]1CN(C)Cc1ccc(C(=O)O)cc1 | inactive: 0.974 |
| COc1ccc(S(=O)(=O)Nc2ccc3c(c2)C(=O)N([C@@H](C)CO)C[C@@H](C)[C@H](CN(C)S(=O)(=O)c2ccc(Cl)cc2)OCCCC[C@@H](C)O3)cc1 | inactive: 1.03 |
| COc1cc2nc(N3CCN(C(=O)c4ccco4)CC3)nc(N)c2cc1OC.Cl | inactive: 1.02 |
| C[C@H](CO)N1C[C@H](C)[C@@H](CN(C)Cc2ccc(C(=O)Nc3ccccc3N)cc2)Oc2ccc(NS(C)(=O)=O)cc2C1=O | inactive: 0.997 |
| Nc1nonc1/C(=N/O)N1CCCCC1 | inactive: 0.984 |
| C[C@@H]1CN([C@@H](C)CO)S(=O)(=O)c2ccc(C3=CCCC3)cc2O[C@H]1CN(C)S(=O)(=O)c1cn(C)cn1 | inactive: 1.02 |
| CN(C)C(=O)N1CCC2(CC1)CC1(CCN(S(=O)(=O)C3CC3)CC1)N(C)C2=O | inactive: 0.982 |
| C[C@H]1CCCCO[C@H](CN(C)C(=O)Nc2ccc(F)cc2)[C@@H](C)CN([C@@H](C)CO)C(=O)c2cc(NC(=O)C3CCCCC3)ccc2O1 | inactive: 1.02 |
| C[C@@H]1CN([C@@H](C)CO)C(=O)Cc2cc(NC(=O)CCC(F)(F)F)ccc2O[C@H]1CN(C)C(=O)Nc1ccc(C(F)(F)F)cc1 | inactive: 0.954 |
| C[C@@H]1CN([C@@H](C)CO)S(=O)(=O)c2ccc(C#CC3CCCC3)cc2O[C@H]1CN(C)Cc1cncnc1 | inactive: 1.05 |
| CCOc1cc(N)ncn1 | inactive: 0.983 |
| Cc1noc(C)c1NC(=O)Nc1ccc2c(c1)CC(=O)N([C@H](C)CO)C[C@@H](C)[C@H](CN(C)Cc1ccc(Cl)c(Cl)c1)O2 | inactive: 1 |
| C[C@@H]1CN([C@H](C)CO)C(=O)c2cc(C#CCN(C)C)cnc2O[C@@H]1CN(C)S(=O)(=O)c1cn(C)cn1 | inactive: 0.98 |

| SMILES | relative growth |
| --- | --- |
| C[C@H](NC(=O)C[C@H]1C=C[C@@H](NC(=O)CN2CCOCC2)[C@@H](CO)O1)c1ccccc1 | inactive: 0.975 |
| CC(C)C#Cc1ccc2c(c1)O[C@@H](CN(C)C(=O)c1cccc(F)c1)[C@@H](C)CN([C@H](C)CO)S2(=O)=O | inactive: 0.997 |
| O=C(C[C@H]1C=C[C@@H](NS(=O)(=O)c2ccc(F)cc2)[C@H](CO)O1)NCc1ccc(Cl)c(Cl)c1 | inactive: 1.02 |
| C[C@H](CO)N1C[C@H](C)[C@H](CN(C)CC2CCCCC2)Oc2c(NC(=O)Nc3ccccc3)cccc2C1=O | inactive: 0.983 |
| C[C@H](CO)N1C[C@H](C)[C@@H](CN(C)Cc2ccccc2)Oc2cc(C#Cc3ccccn3)ccc2S1(=O)=O | inactive: 1.02 |
| Cn1cnc(S(=O)(=O)N[C@H]2CC[C@H](CC(=O)NCC3CC3)O[C@H]2CO)c1 | inactive: 1.02 |
| Cn1cnc(S(=O)(=O)N[C@@H]2CC[C@@H](CC(=O)Nc3ccccc3)O[C@H]2CO)c1 | inactive: 1.01 |
| CCCNC(=O)N1C[C@]2(CCN(CC2)C(=O)Cc2cccnc2)c2c([nH]c3cc(ccc23)OC)[C@H]1CO | inactive: 0.984 |
| Cc1noc(C)c1S(=O)(=O)Nc1ccc2c(c1)CC(=O)N([C@H](C)CO)C[C@@H](C)[C@H](CN(C)S(=O)(=O)c1ccccc1)O2 | inactive: 1.01 |
| C[C@@H]1CN([C@H](C)CO)C(=O)c2cc(NS(C)(=O)=O)ccc2O[C@@H](C)CCCCO[C@@H]1CN(C)Cc1ccc(Cl)c(Cl)c1 | inactive: 0.966 |
| C[C@@H]1CN([C@H](C)CO)S(=O)(=O)c2ccc(C#CC3(O)CCCC3)cc2O[C@@H]1CN(C)C(=O)c1cccnc1 | inactive: 0.986 |
| COc1ccc(S(=O)(=O)Nc2ccc3c(c2)C(=O)N([C@@H](C)CO)C[C@H](C)[C@@H](CN(C)Cc2ccccc2)OCCCC[C@@H](C)O3)cc1 | inactive: 0.982 |
| COc1ccc(S(=O)(=O)N[C@H]2C=C[C@H](CC(=O)N3CCC(Cc4ccccc4)CC3)O[C@H]2CO)cc1 | inactive: 1.02 |
| CN1CCN(C(=O)c2ccc(N)cc2)CC1 | inactive: 0.976 |
| CC(C)(CO)C(O)C(=O)NCCC(=O)NCCSSCCNC(=O)CCNC(=O)C(O)C(C)(C)CO (stereo unspecified) | inactive: 0.992 |
| C[C@@H]1CN([C@H](C)CO)C(=O)c2cc(NS(=O)(=O)c3ccccc3)ccc2O[C@@H]1CN(C)Cc1ccc(-c2ccccc2)cc1 | inactive: 1.02 |
| O=C(O)P(=O)(O)O | active: 0.0351 |
| CC(C)NC(=O)Nc1ccc2c(c1)C(=O)N([C@H](C)CO)C[C@H](C)[C@@H](CN(C)S(C)(=O)=O)OCCCC[C@@H](C)O2 | inactive: 0.904 |
| CC1C(=O)OC2C1CCC1(C)CCC(=O)C(C)C21 (stereo unspecified) | inactive: 1.04 |
